From the RNAGym collection of RNA variant scans (doi:10.1073/pnas.2313332121)
Variants at the floor of the assay are shown more often than the library holds them.

B1: TPR 5TU (parent)
chain: GGAUCUUCUCGAUCUAACAAAAAAGACAAAUCUGCCACAAAGCUUGAGAGCAUCUUCGGAUGCAGAGGCGGCAGCCUUCGGUGGCGCGAUAGCGCCAACGUUCUCAACUAUGACACGCAAAACGCGUGCUCCGUUGAAUGGAGUUUAUCAUG

Variants of: B1
Test: polymerase ribozyme fitness, log enrichment relative to wild type (log ratio); higher = more active; in vitro selection for triplet polymerase activity
Method in brief: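 Streptavidin-bead capture of gel-excised extended constructs, followed by RT-PCR, closed a single triplicate in vitro selection round. That round began by annealing PCR-built, transcribed mutant libraries of each subunit of a heterodimeric triplet polymerase ribozyme with a biotinylated primer, the partner subunit and triplets, then incubating them frozen at −7 °C. After Illumina sequencing of inputs and outputs, genotypes needed ≥10 input reads and ≥1 read per output. Fitness is the base-2 logarithm of genotype enrichment over wild-type enrichment, using inverse-variance-weighted replicate averages.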
With GGAUCUUCUCGAUCUCACAAAAAAGACAAAUCUGACACAAAGCUUGAGAGCAUGUUCGGAUGCAGAGGCGGCAGCCUUCGGUGGCGCGAUAGCGCCAACGUUCUCAACUAUGACACGCAAAACGCGUGCUCCGUUGAAUGGAGUUUAUCAUG the “polymerase ribozyme fitness (log ratio)” value was at most -4.2.
In the case of GGAUCUUCUCGAUCUCAGAAAGAAGAUAAAUCUGCCACAAAGCUUGAGAGCGUCUUCGGAAGCAGAGGCGGCGGCCUUCGGUGGAGCGAUAGCGCCAACGUUCUCAACUAUGACACGCAAAACGCGCGCUCCGUUGAACGGAGUUUAUCAUG, the “polymerase ribozyme fitness (log ratio)” value is reported as at most -4.2.
For GGAUCUUCUCGAUCUCACAAAAAAGACAAAUAUGCCACAAAGCUUGAGAGCAUCUUUGGAUGCAGAGGCAGCAGCAUUCGGUGGCGCGCUAGCGCCAACGUUCUCAACUAUGACACGCAAAACGCGUGCUCCGUUGAAUGUUGUUUAUCAUG, the “polymerase ribozyme fitness (log ratio)” value was at most -4.2.
For GGAUCUUCUCGAUCUCACAAAAAAGACAAAUCUGCCACAAAGCUUGAGAGCAUCUUCGGAUGCAGAGGCGGCAGCCUUCGGUGACGCGAUAGCGCCAACGUUCUGAACUAUGAUACGCAAAACGAGUGCUCCGUUGAAUGGAGAUUAUCAGG, the “polymerase ribozyme fitness (log ratio)” value was at most -4.2.
With GGAUCUUCUCGAUCUCACAAAAAAGACAAAUCUGCCACAAAGAUUGAGAGCAUCUUCGGAUGCAGAGGCGGCAGCCGUCGGUGGCGCGAUAGCGUCAACGUACUUAACUAUGACACGCAAAACGCGUGCUCCGUUGAAUGUAGUUUAUCAUG the “polymerase ribozyme fitness (log ratio)” value was at most -4.2.
For GGAUCUUCUCGAUCUCACAAAAAAGACAAAUCUGCCACAAAGCUUGAGAGCAUCUUCGCAUGCAGAGGCGGCAGCCUUCGGUGGCGCGAUAGCGCCAACGUUCUCAACUAUGACACGCAAAACGCGUGCUCCGUUGAAUGGAGUUUAUCAUG, the “polymerase ribozyme fitness (log ratio)” value was -0.987.
In the case of GGAUCUUCUCGAUCUCACAAAAAAGACAAAUCUGCCACAAAGCUUGAGAGCAUCUUCGGAUCCAGAGGCGGCAGCCUUCGGUGGCGCGAUAGCGCCAACGUUCUCAACUAUGACACGCAAAACGCGUGCUCCGUUGAAUGGAGUUUAUCAUG, the “polymerase ribozyme fitness (log ratio)” value is reported as -2.47.
For GGAUCUUCUCGAUCUCACAAAAAAGACAAAUAUGCCACAAAGCUUCAGAGCAUCUUCGGAUGCAGAGGCGGCAGCCUUCGGUGGCGCGAUAGCGCCAACUUUCUCAACUAUGACACGCAAAACGCGUGCUCCGUUGAAUGGUGUUUAUCAUG, the “polymerase ribozyme fitness (log ratio)” value was at most -4.2.
In the case of GGAUCUUCUCGAUCUCACAAAAAAGACAUAUCUGCCACAAAGUUUGUGAGCAUCUUCGGAUGCAGAGGCGGCAGGCUUCCGUGGCGCUAUAGCGCAAACGUUCUCAACUAUGACACGCAAAACUCGUGCUCCGUUGAAAGGAAUUUAUCAUG, the “polymerase ribozyme fitness (log ratio)” value is reported as at most -4.2.
For GGAUCUUCUCGAUCUCACAAAAAAGACAAAUCUGCCACAAAGCUUGAGAGCAUCUUCGGGUGCAGAGGCGGCAGCCAUCGGUGGCGCGAUAGAGCCAACGUUCUCAACUAUGACACGCAAAACGCGUGCUCCGUUGAAUGGAGUUUAUCAUG, the “polymerase ribozyme fitness (log ratio)” value was at most -4.2.
With GGAUCUUCUCGAUCUCACAAAAAAAACAAAUCUGCCACAAAGCUUGAGAGCAUCUUCGGAUGCAGAGGCGGCAGUCUUCGGUCGCGCGAUAGCGCCACCGUUCUCAACUAUGACCGGCAAAACGCGUGCUCCGUUGAAUGGAGUUUAUCAUG the “polymerase ribozyme fitness (log ratio)” value was at most -4.2.
In the case of GGAUCUUCUCGAUCUCACAAAAAAGACAAAUCUGCAACAAAGCUUGAGAGCAUCUUCGGAUGCAGAGGCGGCAGCAUUCGGUGGCGCGAUGGCGCCAACGUUCUUAACUAUGACACGCAAAACGCGUGCUCCGUUGAAUGGAGUUUAUCGUG, the “polymerase ribozyme fitness (log ratio)” value is reported as at most -4.2.
In the case of GGAUCUUCUCGAUCUCAUAAAAAAGACAAAUCUGCCAUCAAGCUUGAGUGCAUCUUCGGAUGCAGAAGCGGCAGCCUUCGGUGGCGCGAUAGCGCCAACGUUCUCAACUAUGACACGCAAAACGCGUGCUCCGGUGAAUGGAGUUUAUCAUG, the “polymerase ribozyme fitness (log ratio)” value is reported as at most -4.2.
In the case of GGAUCUUCUCGAUCUCACAAAAAAGACAAAUGUGCCACAAAGCUUGAUAGCAUCUUCGGAUGCAGAGGCGGCAGCCUUCGGUGGCGCGAUAGCGCCAACGUUCUCAACUAUGACACGCAAAACGCGUGCUCCGUUAAAUGGAGUUUAUCAUG, the “polymerase ribozyme fitness (log ratio)” value is reported as at most -4.2.
For GGAUCUUCUCGAUCUCACAAAAAAGACAAAUUUGCCACAAAGCGUGAGAGCAUCUUCGGAUGCAGAGGCGACAGCCUUCGGUGGCGGGAUAGCGUCAGCGUUCUCAACUUUGACAUGCAAAACGCGUGCUCCGUUGAAUGGAGUUUAUCAUG, the “polymerase ribozyme fitness (log ratio)” value was at most -4.2.
For GGAUCUUCUCGAUCUCACAAAAAAGACAAAUCUGCCACAAAGCUUGAGAGAAUGUUAGGAUGCAGAGGCGGCAGCCUUCGGUGGCGCGAUAGCGCAAACGUUCUCAACUAUGACACUCAAAACGCGUGCUCCGUGGAAUGGAGUUUAUCAUG, the “polymerase ribozyme fitness (log ratio)” value was at most -4.2.
With GGAUCUUCUCGAUCUCAUAAAAAAGACAAAUCUCCCACAAAGCUUGAGAGAAUCUUCAGAUGCAGAGGCGGUAGCGUUCGGUGGCGCGAUAGCGCCAACGUUCUUAACUAUGACACGCAAAACGCGUGCUCCGUUGAAUGGAGUUUAUCAUG the “polymerase ribozyme fitness (log ratio)” value was at most -4.2.
In the case of GGAUCUUCUCGAUCUCACAAAAAAGGCAAAUCUGCCACAAAGCUUGAGAGCAUCUUCGGAUGCAGAGGCGGCAGCCUUCGGUCGCGCCAUAGCGCCAAAGUUCUCAACUAUGACACGCAAAACGCGUGCUCCGUUGAAUGGAGUUUAUCAUG, the “polymerase ribozyme fitness (log ratio)” value is reported as at most -4.2.
For GGAUCUUCUCGAUCUCACAAAAAAGACAAAUCUGCCACACAGCUUGAGAGCAUCUUCGGAUGCAGAGGCGGCAGCCUUCGGUAGCGCGAUAGCGCCGACGUUCUCAACUAUGACACGCAAAACGCGUGCUCCGUUGAAUGGAGUUUAUCAUG, the “polymerase ribozyme fitness (log ratio)” value was -0.914.
